# Reference: PubChem BioAssay (NCATS)
# The inconclusive results got no clear call from the source; some entries with a clear call stand among them for comparison. For some of these results: Potencies of inconclusive entries are left out as doubtful fits. Calls of active or inactive are those of the source. Unless noted, calls come from the whole dose curve; as a rule, active = well fitted curve in the direction sought with a large enough effect; inconclusive = small, poorly fitted or top-dose-only effect, or another doubt; inactive = no such curve, though single readings can be large; an effect the other way counts as inactive or inconclusive.
# Columns and labels:
# [1] = Primary redox qHTS assay for identification of artifact compounds. (AID 1845223); note: potency is the fitted concentration of half-maximal effect
# Procedure, shortened: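 Redox-cycling detection via DTT (250 uM final) oxidation coupled to Amplex Red (25 uM)/HRP (250 mU/mL) in HBSS. 15 min preincubation plus 30 min after DTT, room temperature. Ex/Em 525/598 nm; 4-parameter Hill fit against DMSO and 10 uM DA3003.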
# [2] = test system: PA-1; experiment: Primary qHTS to identify gynecologic anti-cancer compounds using libraries of approved drugs and bioactive compounds (AID 1345084); conditions: Gynecologic cancer cell panel viability, ATPlite luminescence, 48 h; series mostly up to 57.5 µM; note: nearly all actives have a fitted effect of over 55% in size; note: potency is the fitted concentration of half-maximal effect
# Procedure, shortened: (§1)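 Five-point cytotoxicity, 48 h drug exposure at 37 C, 5% CO2, on cells seeded 16 h beforehand. ATP content read by ATPlite luminescence.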
# [3] = test system: SKOV3; experiment: as above; conditions: Gynecologic cancer cell panel viability, ATPlite luminescence, 48 h; series mostly up to 57.5 µM
# Procedure, shortened: as §1
# [4] = test system: Tov-21-G; experiment: as above; conditions: Gynecologic cancer cell panel viability, ATPlite luminescence, 48 h; series mostly up to 57.5 µM
# Procedure, shortened: as §1
# [5] = test system: Zika virus NS2B-NS3 protease (linked construct); experiment: Primary screen NINDS Rhodamine qHTS for Zika virus inhibitors (AID 1347160); note: nearly all actives have a fitted effect of over 55% in size; note: potency is the fitted concentration of half-maximal effect
# Procedure, shortened: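 Single-chain NS2B-NS3 protease, 25 nM, pH 8.0; compounds preincubated 15 min. Activity: Rhodamine110 release from 1.5 microM substrate over 15 min, room temperature, data fitted to 4-parameter Hill.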
# [6] = Primary fluorescence-based thiol-reactive (MSTI) qHTS assay for identification of artifact compounds. (AID 1845221);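 note: potency is the fitted concentration of half-maximal effect; thiol-reactive compounds lower the probe fluorescence signal; nearly all actives have a fitted effect of over 65% in size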
# Procedure, shortened: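 Thiol-reactive compounds detected by quenching of 4 uM MSTI fluorescence (525/598 nm) after 1 h room-temperature dark incubation in PBS pH 7.4, 2% DMSO. qHTS titration; percent inhibition Hill-fitted against Acetyl-MSTI/MSTI controls.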
# [7] = biological target: Cytochrome P450 2C9 (Homo sapiens) (UniProt P11712); experiment: Cytochrome P450 family 2 subfamily C member 9 (CYP2C9) small molecule antagonists: luciferase biochemical (cell-free) qHTS assay (AID 1645842; active = well fitted curve in the direction sought with a large enough effect in the repeat runs; inconclusive = weak or mixed curves; inactive = no such curve, though single readings can be large; an effect the other way counts as inactive or inconclusive; note: potency is the fitted concentration of half-maximal effect; nearly all actives have a fitted effect of over 55% in size)
# Chain of UniProt P11712 (P11712 whole entry, looked up): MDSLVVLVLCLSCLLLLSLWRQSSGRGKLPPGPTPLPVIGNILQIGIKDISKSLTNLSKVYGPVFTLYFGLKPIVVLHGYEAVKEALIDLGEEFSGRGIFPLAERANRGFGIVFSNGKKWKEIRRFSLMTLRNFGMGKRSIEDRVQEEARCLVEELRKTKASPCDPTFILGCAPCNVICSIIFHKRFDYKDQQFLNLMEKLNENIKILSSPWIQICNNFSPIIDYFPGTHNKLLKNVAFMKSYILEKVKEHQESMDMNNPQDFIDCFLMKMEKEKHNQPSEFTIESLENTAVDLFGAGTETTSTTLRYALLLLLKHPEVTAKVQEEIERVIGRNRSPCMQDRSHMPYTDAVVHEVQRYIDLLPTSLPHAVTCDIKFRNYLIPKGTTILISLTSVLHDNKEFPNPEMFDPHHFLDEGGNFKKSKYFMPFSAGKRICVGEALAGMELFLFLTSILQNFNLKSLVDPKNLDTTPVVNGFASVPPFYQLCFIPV
# Procedure, shortened: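 P450-Glo CYP2C9 system: proluciferin substrate with enzyme in mix containing 0.4% BSA, 10 min at room temperature, then NADPH regeneration solution added and incubated 1 h at 37C. Detection reagent stopped reaction; luminescence read after 20 min as RLU.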
# [8] = test system: Zika virus NS2B-NS3 protease (unlinked complex); experiment: Primary screen GU Rhodamine qHTS for Zika virus inhibitors: Unlinked NS2B-NS3 protease assay (AID 1347159); conditions: Recombinant ZIKV NS2B-NS3 protease, Rhodamine110 substrate fluorescence; activity change, negative = inhibition: at 107 µM (top of the series); note: nearly all actives have a fitted effect of over 60% in size; note: potency is the fitted concentration of half-maximal effect
# Procedure, shortened: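 Unlinked NS2B/NS3, 25 nM; Rhod110 peptide, 1.5 microM; compounds, up to 114 microM. Reaction run 15 min at RT in 10 mM Tris-HCl pH 8.0, 0.01% Tween 20; kinetic fluorescence change fitted with a 4-parameter Hill model.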
# [9] = Primary qHTS for inhibitors of nuclear receptor binding SET domain protein 2 (NSD2) in an RCH-ACV wild type WT cells (2C) (AID 1645877); conditions: activity change, negative = cell killing: at 44.9 µM (top of the series) unless noted; note: nearly all actives have a fitted effect of over 70% in size; note: potency is the fitted concentration of half-maximal effect
# [10] = biological target: Phospholipid hydroperoxide glutathione peroxidase GPX4 (Homo sapiens) (UniProt P36969); experiment: Primary qHTS Assay for Inhibitors of Recombinant Selenoprotein Glutathione Peroxidase 4 (GPX4) (AID 1845192); conditions: activity change, negative = inhibition: at 50 µM (top of the series) unless noted; note: nearly all actives have a fitted effect of over 65% in size
# Chain of UniProt P36969 (P36969 whole entry, looked up): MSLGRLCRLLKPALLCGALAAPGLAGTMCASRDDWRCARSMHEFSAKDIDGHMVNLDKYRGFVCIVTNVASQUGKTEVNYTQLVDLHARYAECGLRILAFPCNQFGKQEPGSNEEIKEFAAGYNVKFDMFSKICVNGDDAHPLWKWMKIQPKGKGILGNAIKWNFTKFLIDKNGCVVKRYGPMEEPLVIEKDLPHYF
# Procedure, shortened: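 NADPH consumption followed by fluorescence at 340/450 nm, t=0 and after 15 min at room temperature. Reaction started with cumene hydroperoxide (0.5 mM final) after 30 min compound–GPX4 preincubation; final 200 nM GPX4, 100 nM GR, 1 mM GSH, 0.5 mM NADPH.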
# [11] = Primary qHTS for inhibitors of nuclear receptor binding SET domain protein 2 (NSD2) in an isogenic RCH-ACV NSD2 p.E1099K mutant (9B) (AID 1645876); conditions: activity change, negative = viability loss: at 44.9 µM (top of the series) unless noted; note: nearly all actives have a fitted effect of over 70% in size
# [12] = test system: Tov112D; experiment: Primary qHTS to identify gynecologic anti-cancer compounds using libraries of approved drugs and bioactive compounds (AID 1345084); conditions: Gynecologic cancer cell panel viability, ATPlite luminescence, 48 h; series mostly up to 57.5 µM; note: nearly all actives have a fitted effect of over 55% in size; note: potency is the fitted concentration of half-maximal effect
# Procedure, shortened: as §1
# Tags give direction and shape of the fitted curve.
compound,measurement,setting,value
C=CC1(C)CC2CCC3C(C)(C(=O)O)CCCC3(C)C2=CC1=O (centres undefined),Potency,[1],inactive
same,Potency,[2],inactive
same,Potency,[3],inactive
same,Potency,[4],inactive
CC1=C[C@@H]2[C@H]3[C@@H]4O[C@@](C)(CC[C@H]4O)[C@H]3CC(=O)[C@]23C(=O)N[C@@H](CC(C)C)[C@@H]3[C@@H]1C,Potency,[5],inactive
same,Potency,[6],"inconclusive [inhibitor, partial curve, poor fit]"
same,Potency,[1],"inconclusive [activator, single point]"
same,Potency,[2],inactive
same,Potency,[3],"inconclusive [rising, partial curve, poor fit]"
COCC(=O)N1CCc2cc(-c3csc(NC(=O)c4cc(OC)cc(OC)c4)n3)ccc21,Potency,[7],"inconclusive [inhibitor, full curve]"
same,Potency,[2],inactive
same,Potency,[3],"inconclusive [rising, single point]"
CC(C)CCC1(O)C(=O)C(C)(C)C(O[C@@H]2O[C@H](CO)[C@@H](O)[C@H](O)[C@H]2O)C(C)(C)C1O (some centres undefined),Potency,[8],active: 35.5 µM
same,Potency,[5],"inconclusive [inhibitor, partial curve, poor fit]"
same,Potency,[9],inactive
same,Potency,[10],inactive
same,Potency,[2],inactive
same,Potency,[3],inactive
COC(=O)C1C(CC(C)=O)C=CC(O)C12Oc1cc(C)cc(O)c1C2=O (centres undefined),Potency,[8],"inconclusive [inhibitor, partial curve, poor fit]"
same,Potency,[11],inactive
same,Potency,[9],"inconclusive [inhibitor, single point]"
same,Potency,[6],active: 5.85 µM
same,Potency,[2],inactive
same,Potency,[3],"inconclusive [rising, single point]"
CC1(C)C=Cc2c(ccc3c2N=C2C(C)(C)[C@@H]4C[C@]56CCCN5C(=O)[C@@]4(C[C@]23O)NC6=O)O1,Potency,[8],inactive
same,Potency,[1],inactive
same,Potency,[2],inactive
same,Potency,[3],"inconclusive [rising, partial curve, poor fit]"
COc1cc(C(=O)OC[C@@]2(O)CO[C@@H](O[C@H]3[C@H](Oc4ccc(C(=O)O)cc4OC)O[C@H](CO)[C@@H](O)[C@@H]3O)[C@@H]2O)ccc1O,Potency,[2],inactive
same,Potency,[3],inactive
CC(=O)O[C@H](C[C@@H](C)[C@H]1C(=O)[C@H](O)[C@@]2(C)[C@@H]3CCC4C(C)(C)[C@@H](O[C@@H]5OC[C@H](O)[C@H](O)[C@H]5O)CC[C@@]45C[C@@]35CC[C@]12C)[C@@H]1OC1(C)C (some centres undefined),Potency,[2],inactive
same,Potency,[3],inactive
same,Potency,[12],inactive
C=CC(C)(C)C12CC3C(=O)NC(Cc4cnc[nH]4)C(=O)N3C1Nc1ccccc12 (centres undefined),Potency,[2],inactive
